Data reported in patent US20060246071A1 (AstraZeneca / MedImmune, published 2006).

Target: T1, recombinant human Angiopoietin-2 (human, UniProt O15123 19-496)
T1 construct: also called Ang-2; rhAng-2
T1 sequence: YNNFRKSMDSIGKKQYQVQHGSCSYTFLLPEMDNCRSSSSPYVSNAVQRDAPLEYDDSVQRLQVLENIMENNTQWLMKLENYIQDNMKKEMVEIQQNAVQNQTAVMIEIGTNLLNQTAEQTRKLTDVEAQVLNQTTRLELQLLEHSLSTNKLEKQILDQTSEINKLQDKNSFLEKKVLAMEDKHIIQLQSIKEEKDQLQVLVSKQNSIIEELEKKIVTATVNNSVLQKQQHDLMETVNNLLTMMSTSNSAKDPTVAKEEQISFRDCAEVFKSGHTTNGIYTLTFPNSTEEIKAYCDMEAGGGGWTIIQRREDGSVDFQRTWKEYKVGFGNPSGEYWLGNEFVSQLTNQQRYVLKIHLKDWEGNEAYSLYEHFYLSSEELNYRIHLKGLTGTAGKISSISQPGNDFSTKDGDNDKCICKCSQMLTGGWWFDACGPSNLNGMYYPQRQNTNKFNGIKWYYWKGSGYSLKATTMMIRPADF
Assay: competition ELISA, Ang-2 on coated Tie2/Fc
Method: 96-well Nunc Immplates™ were coated with 100 μl of recombinant human Tie2/Fc fusion protein (R&D Systems, Inc., Cat. No. 313-TI-100) at 4 μg/ml by incubating overnight at 4° C. The plates were washed four times using Phosphate Buffer Saline (PBS) with a Skan™ Washer 300 station (SKATRON). The wells were blocked by 100 μl of ABX-blocking buffer (0.5% BSA, 0.1% Tween, 0.01% Thimerosal in PBS) for 1 hour.
The plates were incubated at room temperature for two hours before the unbound molecules were washed off. […] After washing twice, the bound Streptavidin was detected by HRP substrate (R&D Systems, Cat. No. DY998). The plates were incubated for 30 minutes before 450 stop solution (100 μl/well, BioFX, Cat #BSTP-0100-01) was added to terminate the reaction. The light absorbance at 450 nm was determined by a Spectramax Plus reader.
Each concentration of the mAb was tested in duplicate. The concentration-response relationship was found by curve fitting using Graphpad Prism™ graphic software (non-linear, Sigmnoid curve). The maximal inhibition (efficacy) and IC₅₀ (potency) were calculated by the software.

Efficacy (ratio of bound Ang-2 with mAbs (30 µg/ml) versus without mAbs): 0.262
B1: mAb 5.78.3 (antibody, V domains shown)
VH: not shown
VL: DIVMTQSPDSLAVSLGERATINCKSSQSVLYSSNNQNFLAWYQQKPGQPPKLLIYWASTRESGVPDRFSGSGSGTDFTLTISSLQAEDVAVYYCHQYYSTPITFGQGTRLEIKR
notes: Variable regions only; hybridoma-derived fully human IgG kappa; also called 5.78.1; x5.78
